Data taken from article PMC12040169 (PLOS Biology, 2025).
The list shows a part of the results.

system: T1, C. trachomatis L2/434/Bu expressing GFP (CTL2-GFP); parameters: species or system HeLa; C. trachomatis total inclusion area by high-content imaging, normalised to DMSO; settings: total inclusion area; 28.5 h, 10 µM; inhibitor
T1 construct: L2/434/Bu GFP intracellular growth in HeLa cells
In short: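 High-content imaging followed the bulk GFP/resorufin measurement: fixed, Hoechst-stained cells were scored for GFP inclusions and host nuclei per well. Total inclusion area and count served as growth proxies, nuclei number as the viability proxy. MIC calculation matched the bulk assay.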

Structure (SMILES)	% of control remaining
Cc1ccc(C(=O)Nc2cc(C)nn2C)c(N2CCOCC2)n1 [CBK106221]	93.859
COc1ccccc1C(CNC(=O)Nc1cc(C)on1)N(C)C (stereo not shown) [CBK305028]	92.4141
CC(=O)NCCSc1nc2cc(Cl)c(Cl)cc2nc1N1CCCC1 [CBK103701]	76.3012
Cc1nn(C)c(C)c1CCc1nc(CN2CCN(C)CC2)no1 [CBK306510]	90.1771
FC(F)(F)c1ccc(CN2CCC(Oc3nccnc3OC3CCCCC3)CC2)cc1 [CBK082859T]	49.9625
COc1ccc(CC(=O)NCCc2nnc3ccccn23)cc1 [CBK304613]	23.5321
CN1CCN(CCOC(=O)N2CCN(C(c3ccccc3)c3ccccc3)CC2)CC1 [CBK200419]	82.9935
COc1cccc2ncn(CCCn3ccnn3)c(=O)c12 [CBK306650]	42.25
CN(Cc1cccnc1)CC1CCCN(C(=O)Nc2ccc(Cl)cc2)C1 (stereo not shown) [CBK305428]	52.6196
O=C1NC(=O)C(CC(=O)N2CCCC3(CCN(C(=O)c4cc(F)c(F)cc4F)C3)C2)N1 (stereo not shown) [CBK131550]	83.418
Cc1cc(NC(=O)CN(C)CCNC(=O)C2CCCC2)no1 [CBK305237]	31.3358
CC(=O)NC1(c2ccccc2)CCN(C(=O)Nc2ccccc2-c2ccccc2)CC1 [CBK286288]	111.449
O=C(CSCc1ccccc1)Nc1ccc2c3c(cccc13)CC2 [CBK264916]	109.514
Cc1ccc(S(N)(=O)=O)cc1N [CBK024851]	95.3062
CC(C)NC(=O)c1sc2ccccc2c1C1CCN(C(=O)CCc2ccccc2)C1 (stereo not shown) [CBK285874]	106.491
Oc1ccc(NCc2ccc(OCc3cccs3)cc2)cc1 [CBK266586]	99.5897
C[C@H](Nc1cncc(-c2cccnc2)n1)c1ccccc1 [CBK065807]	105.214
Cc1ccc2ncnc(NC(CC(C)C)C(=O)O)c2c1 (stereo not shown) [CBK275388]	105.695
COc1cccc(C2=NO[C@@](CC(=O)O)(C(=O)NCc3ccccc3)C2)c1OC [CBK286641]	74.1676
O=C(N/N=C/c1ccc(OC(=O)c2cccs2)cc1)c1ccccn1 [CBK262178]	90.2216
Cc1cccc(-n2ncc3c(=O)n(CC(=O)NC4CCCCC4)cnc32)c1C [CBK287694]	143.673
O=C(O)c1cccc(CSc2nnc(-c3ccncc3)o2)c1 [CBK266310]	124.243
OC12CCCON1OC(c1ccccc1)C2 (stereo not shown) [CBK006752]	84.1889
Cc1ccc2c(c1)cc(C)c1nn(CC(=O)N3CCCC3)c(=O)n12 [CBK283872]	73.7572
Cc1ccc(S(=O)(=O)NC(C)(C)CN2CCN(C(c3ccccc3)c3ccccc3)CC2)cc1 [CBK262799]	107.575
COc1ccc(Nc2cccc(-c3ccc(CCC(=O)O)cc3)n2)cc1 [CBK036943]	104.378

Structure (SMILES)	% of control remaining
Cc1cc(C)cc(C(=O)N2CCC(NC(=O)c3cnn(C)c3)CC2)c1 [CBK305723]	54.7887
CCCc1ccc(S(=O)(=O)N2CCN(CC(=O)Nc3cc(C(C)C)no3)CC2)cc1 [CBK295629]	121.307
Cc1onc(-c2ccc(Cl)cc2)c1C(=O)N1CCN(C2CCN(C)CC2)CC1 [CBK149087]	68.3036
Clc1cc(Nc2cccc(OCc3ccccc3)c2)n2nccc2n1 [CBK037109]	108.395
COC(=O)[C@H]1CN(C(=O)c2cnn(C)c2C)C[C@@H]1c1ccc(F)cc1 [CBK283721]	97.7554
O=C(Nc1ccc2cc(Br)cnc2n1)C(F)(F)F [CBK063313]	116.335
COc1ccc(C=CC(=O)Nc2sc3c(c2C(=O)O)CCCC3)cc1OC [CBK296103]	16.709
OCC1CCCN1c1cncc(-c2ccc3c(c2)OCO3)n1 (stereo not shown) [CBK065908]	65.1673
CC(=O)Nc1ccc(S(=O)(=O)N2CCN(c3ccc([N+](=O)[O-])c(NC4CC4)c3)CC2)cc1 [CBK264439]	114.998
N=C(N)CCCOc1ccccc1-c1ccccc1 [CBK058057]	82.8176
NCCCOc1nc2ccccc2nc1N1CCCC1 [CBK115287]	95.968
CC(C)[C@@H](CO)NC(=O)c1cnc(-c2cccc(C(F)(F)F)c2)c(-c2cccnc2)c1 [CBK037520]	126.087
CC(C)C(NC(=O)c1cc2c([nH]c1=O)CCC2)c1ccc(F)cc1 (stereo not shown) [CBK281662]	81.8291
O=C(N/N=C/c1ccccc1O)c1cccc(C(=O)N/N=C/c2ccccc2O)n1 [CBK261459]	88.6073
O=C(CCN1CCN(CCO)CC1)Nc1ccc2c(c1)CCC2 [CBK264262C]	99.0628
CN1CCN(S(=O)(=O)c2ccc(N3CCOCC3)nc2)CC1 [CBK062434]	117.977
c1ccc2sc(SCc3nc4c5c6c(sc5ncn4n3)CCCC6)nc2c1 [CBK262923]	94.8245
CCN(CCc1ccccn1)S(=O)(=O)c1ccc(OC(F)(F)F)cc1 [CBK044968]	43.1313
O=S(=O)(NCC(c1ccccc1)n1cc(-c2ccccc2)nn1)c1ccccc1 (stereo not shown) [CBK268244]	112.186
FC(F)(F)c1cccc(CC2CSC(=S)N2)c1 (stereo not shown) [CBK022895]	6.741
Cc1cc(C)n(-c2cccc(C(=O)NCCn3ccnc3)c2)n1 [CBK281585]	81.7853
CC(C)(CN1CCCC1)NC(=O)N1CCN(Cc2cccc(O)c2)CC1 [CBK307380]	72.7207
COc1cc(/C=N/NC(=O)c2ccncc2)ccc1OCc1ccc(Cl)cc1 [CBK262454]	90.891
COc1ccc(OCCNC(=O)c2cc(Br)cnc2N2CCOCC2)cc1 [CBK076214]	101.893
O=C(C1=C(O)C(=O)N(Cc2cccnc2)C1c1cccnc1)c1cccs1 (stereo not shown) [CBK264547]	112.936
C#CCOC(=O)NC(=O)c1csnn1 [CBK006685]	75.1422
